Consider seven molecules from the supplement of paper PMC12423691.

The list shows a part of the results. Binding of human transcription factors and regulators to the viral nucleoprotein by AlphaScreen, crude cell-free proteins, amounts not normalised, one pass. Fold of the Venus control; higher = more signal. No active / inactive call. Single-pass screen; sequences are the whole Swiss-Prot entries looked up by name.

The labels stand for the following.
B1: SIM2, Q14190 (protein)
chain: MKEKSKNAAKTRREKENGEFYELAKLLPLPSAITSQLDKASIIRLTTSYLKMRAVFPEGLGDAWGQPSRAGPLDGVAKELGSHLLQTLDGFVFVVASDGKIMYISETASVHLGLSQVELTGNSIYEYIHPSDHDEMTAVLTAHQPLHHHLLQEYEIERSFFLRMKCVLAKRNAGLTCSGYKVIHCSGYLKIRQYMLDMSLYDSCYQIVGLVAVGQSLPPSAITEIKLYSNMFMFRASLDLKLIFLDSRVTEVTGYEPQDLIEKTLYHHVHGCDVFHLRYAHHLLLVKGQVTTKYYRLLSKRGGWVWVQSYATVVHNSRSSRPHCIVSVNYVLTEIEYKELQLSLEQVSTAKSQDSWRTALSTSQETRKLVKPKNTKMKTKLRTNPYPPQQYSSFQMDKLECGQLGNWRASPPASAAAPPELQPHSESSDLLYTPSYSLPFSYHYGHFPLDSHVFSSKKPMLPAKFGQPQGSPCEVARFFLSTLPASGECQWHYANPLVPSSSSPAKNPPEPPANTARHSLVPSYEAPAAAVRRFGEDTAPPSFPSCGHYREEPALGPAKAARQAARDGARLALARAAPECCAPPTPEAPGAPAQLPFVLLNYHRVLARRGPLGGAAPAASGLACAPGGPEAATGALRLRHPSPAATSPPGAPLPHYLGASVIITNGR
B2: FOXD4L6, Q3SYB3 (protein)
chain: MNLPRAERLRSTPQRSLRDSDGEDGKIDVLGEEEDEDEVEDEEEAASQQFLEQSLQPGLQVARWGGVALPREHIEGGGGPSDPSEFGTKFRAPPRSAAASEDARQPAKPPYSYIALITMAILQNPHKRLTLSGICAFISGRFPYYRRKFPAWQNSIRHNLSLNDCFVKIPREPGHPGKGNYWSLDPASQDMFDNGSFLRRRKRFKRHQLTPGAHLPHPFPLPAAHAALHNPHPGPLLGAPAPPQPVPGAYPNTAPGRRPYALLHPHPLRYLLLSAPVYAGAPKKAEGAALATPAPFPCCSPHLVLSLGRRARVWRRHREADASLSALRVLCKGSGERVQGLRRVCPRPRGATATCSSDHQACCIPRPLPLCCKCPPPPLLGQFCSNSSSIRRRTAPTAALPPRARCWAGTCRPRRPC
B3: NEUROG1, Q92886 (protein)
chain: MPARLETCISDLDCASSSGSDLSGFLTDEEDCARLQQAASASGPPAPARRGAPNISRASEVPGAQDDEQERRRRRGRTRVRSEALLHSLRRSRRVKANDRERNRMHNLNAALDALRSVLPSFPDDTKLTKIETLRFAYNYIWALAETLRLADQGLPGGGARERLLPPQCVPCLPGPPSPASDAESWGSGAAAASPLSDPSSPAASEDFTYRPGDPVFSFPSLPKDLLHTTPCFIPYH
B4: ELF5, Q9UKW6 (protein)
chain: MPSLPHSHRVMLDSVTHSTFLPNASFCDPLMSWTDLFSNEEYYPAFEHQTACDSYWTSVHPEYWTKRHVWEWLQFCCDQYKLDTNCISFCNFNISGLQLCSMTQEEFVEAAGLCGEYLYFILQNIRTQGYSFFNDAEESKATIKDYADSNCLKTSGIKSQDCHSHSRTSLQSSHLWEFVRDLLLSPEENCGILEWEDREQGIFRVVKSEALAKMWGQRKKNDRMTYEKLSRALRYYYKTGILERVDRRLVYKFGKNAHGWQEDKL
B5: ZNF382, Q96SR6 (protein)
chain: MPLQGSVSFKDVTVDFTQEEWQQLDPAQKALYRDVMLENYCHFVSVGFHMAKPDMIRKLEQGEELWTQRIFPSYSYLEEDGKTEDVLVKFKEYQDRHSRPLIFINHKKLIKERSNIYGKTFTLGKNRISKTILCEYKPDGKVLKNISELVIRNISPIKEKFGDSTGWEKSLLNTKHEKIHPAVNLHKQTERVLSGKQELIQHQKVQAPEQPFDHNECEKSFLMKGMLFTHTRAHRGERTFEYNKDGIAFIEKSSLSVHPSNLMEKKPSAYNKYGKFLCRKPVFIMPQRPQTEEKPFHCPYCGNNFRRKSYLIEHQRIHTGEKPYVCNQCGKAFRQKTALTLHEKTHIEGKPFICIDCGKSFRQKATLTRHHKTHTGEKAYECPQCGSAFRKKSYLIDHQRTHTGEKPYQCNECGKAFIQKTTLTVHQRTHTGEKPYICNECGKSFCQKTTLTLHQRIHTGEKPYICNECGKSFRQKAILTVHHRIHTGEKSNGCPQCGKAFSRKSNLIRHQKTHTGEKPYECKQCGKFFSCKSNLIVHQKTHKVETTGIQ
B6: ZNF542P, Q5EBM4 (protein)
chain: MLENYQNLVWLGLSISKSVISLLEKRKLPWIMAKEEIRGPLPGYFKVSEMTISQEPKAKTRTLFGKDVPGAEIKELSAKRAINEVLSQFDTVIKCTRNVCKECGNLYCHNMQLTLHKRNHTQKKCNQCLDCGKYFTRQSTLIQHQRIHTGERPYKCNECIKTFNQRAHLT
B7: NLRC4, Q9NPP4 (protein)
chain: MNFIKDNSRALIQRMGMTVIKQITDDLFVWNVLNREEVNIICCEKVEQDAARGIIHMILKKGSESCNLFLKSLKEWNYPLFQDLNGQSLFHQTSEGDLDDLAQDLKDLYHTPSFLNFYPLGEDIDIIFNLKSTFTEPVLWRKDQHHHRVEQLTLNGLLQALQSPCIIEGESGKGKSTLLQRIAMLWGSGKCKALTKFKFVFFLRLSRAQGGLFETLCDQLLDIPGTIRKQTFMAMLLKLRQRVLFLLDGYNEFKPQNCPEIEALIKENHRFKNMVIVTTTTECLRHIRQFGALTAEVGDMTEDSAQALIREVLIKELAEGLLLQIQKSRCLRNLMKTPLFVVITCAIQMGESEFHSHTQTTLFHTFYDLLIQKNKHKHKGVAASDFIRSLDHCGDLALEGVFSHKFDFELQDVSSVNEDVLLTTGLLCKYTAQRFKPKYKFFHKSFQEYTAGRRLSSLLTSHEPEEVTKGNGYLQKMVSISDITSTYSSLLRYTCGSSVEATRAVMKHLAAVYQHGCLLGLSIAKRPLWRQESLQSVKNTTEQEILKAININSFVECGIHLYQESTSKSALSQEFEAFFQGKSLYINSGNIPDYLFDFFEHLPNCASALDFIKLDFYGGAMASWEKAAEDTGGIHMEEAPETYIPSRAVSLFFNWKQEFRTLEVTLRDFSKLNKQDIRYLGKIFSSATSLRLQIKRCAGVAGSLSLVLSTCKNIYSLMVEASPLTIEDERHITSVTNLKTLSIHDLQNQRLPGGLTDSLGNLKNLTKLIMDNIKMNEEDAIKLAEGLKNLKKMCLFHLTHLSDIGEGMDYIVKSLSSEPCDLEEIQLVSCCLSANAVKILAQNLHNLVKLSILDLSENYLEKDGNEALHELIDRMNVLEQLTALMLPWGCDVQGSLSSLLKHLEEVPQLVKLGLKNWRLTDTEIRILGAFFGKNPLKNFQQLNLAGNRVSSDGWLAFMGVFENLKQLVFFDFSTKEFLPDPALVRKLSQVLSKLTFLQEARLVGWQFDDDDLSVITGAFKLVTA

This assay deals with nucleoprotein N of Crimean-Congo hemorrhagic fever virus. The assay can be described thus: AlphaScreen luminescence signal relative to Venus negative control (fold); higher = stronger binding to CCHFV N. As for the experimental part: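 AlphaScreen binding of cell-free made, FLAG-GST-tagged human transcription factors and regulators (crude translation products) to biotinylated N protein; signal as fold of the FLAG-GST-Venus control. One pass.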
In turn, B1 returned an AlphaScreen luminescence signal of 2.65.
Under B2 stands 1.81; under B3, 5.4.
Regarding B4, the AlphaScreen luminescence signal is 3.72.
The value for B5 was 3.26.
Under B6 stands 1.53; under B7, 2.47.
